Assay results: the supplement of paper PMC3334620
Whole data set: some 33,000 sequences, median “E-score (-0.5 to 0.5)” near -0.041, cut for the highest 2% near 0.37. The list shows a part of the results.

target: T1, Ecm22 (UniProt Q05958); assay: PBM E-score (8-mer binding enrichment) (E-score (-0.5 to 0.5)); higher = stronger / more preferred TF binding; most listed sequences are background and not binding sites; conditions: protein concentration: 200 nM; construct: GST-full length
T1 sequence: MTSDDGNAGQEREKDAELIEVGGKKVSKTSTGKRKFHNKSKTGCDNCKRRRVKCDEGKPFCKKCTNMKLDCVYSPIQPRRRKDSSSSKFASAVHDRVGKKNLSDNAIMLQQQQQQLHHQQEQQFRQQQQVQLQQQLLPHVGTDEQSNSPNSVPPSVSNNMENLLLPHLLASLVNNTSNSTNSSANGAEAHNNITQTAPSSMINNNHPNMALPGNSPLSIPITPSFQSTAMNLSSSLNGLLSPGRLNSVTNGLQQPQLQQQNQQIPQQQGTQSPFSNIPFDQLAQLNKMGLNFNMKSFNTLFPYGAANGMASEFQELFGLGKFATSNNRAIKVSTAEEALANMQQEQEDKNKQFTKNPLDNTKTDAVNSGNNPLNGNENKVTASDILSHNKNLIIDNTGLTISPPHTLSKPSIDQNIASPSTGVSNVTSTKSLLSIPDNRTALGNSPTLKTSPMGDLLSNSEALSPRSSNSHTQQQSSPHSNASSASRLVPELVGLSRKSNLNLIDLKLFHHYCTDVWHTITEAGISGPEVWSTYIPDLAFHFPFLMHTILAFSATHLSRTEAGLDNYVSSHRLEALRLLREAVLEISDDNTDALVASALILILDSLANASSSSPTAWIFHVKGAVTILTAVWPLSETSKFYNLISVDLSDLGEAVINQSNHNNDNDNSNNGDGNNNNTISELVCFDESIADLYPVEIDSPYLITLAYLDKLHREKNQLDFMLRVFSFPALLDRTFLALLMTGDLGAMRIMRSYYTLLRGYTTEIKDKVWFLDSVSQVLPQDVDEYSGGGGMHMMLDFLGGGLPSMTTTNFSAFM
Summary of the method: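 Yeast transcription factors, full-length or as DNA-binding domains, were expressed with a GST tag using PURExpress in vitro transcription/translation. At about 100-200 nM they were applied to universal all-10-mer Agilent arrays, double-stranded by primer extension on fresh or once-stripped slides. Fluorescent anti-GST detected bound protein, and masliner normalised the scans. E-scores for ungapped eight-base words, pooled with reverse complements, came from the Universal PBM Analysis Suite.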

| Sequence | PBM E-score |
| --- | --- |
| GACAGGGA | -0.0415 |
| AAAGCGTT | -0.0373 |
| CCCGTAGG | -0.158 |
| ACAGGACA | 0.0711 |
| CGCACTGA | -0.0509 |
| ACCCGCCG | 0.0245 |
| GCTAAGGA | -0.164 |
| AGGCATTG | 0.0314 |
| AGTATCGA | -0.00208 |
| ACACCCAA | -0.0552 |
| GGACACTA | -0.118 |
| CGACAGCG | 0.171 |
| TACGAATA | 0.43 |
| ACCTGTTA | -0.0441 |
| CTCACCGA | 0.00921 |
| GTACCTAC | 0.107 |
| ACTTTTGC | -0.0866 |
| CTAGCGTA | -0.0308 |
| AGACTAGC | -0.234 |
| AAGTTGCT | -0.0881 |
| TCCTGGAA | -0.15 |
| GATGTATA | -0.0358 |
| ACTACTCC | -0.00828 |
| CCCACACC | -0.0753 |
| GGTGTTCA | -0.138 |

| Sequence | PBM E-score |
| --- | --- |
| CGAGCTGA | 0.227 |
| AGCAGCAT | -0.0652 |
| AGGTGACC | -0.203 |
| ACACCAAG | -0.0985 |
| CTGACGGA | -0.113 |
| AATCGAGC | 0.237 |
| ACCGACGC | 0.216 |
| CCGCGTAC | 0.231 |
| AACTTCTG | -0.174 |
| CCAAGGGA | -0.0775 |
| CACGGCGA | 0.0797 |
| CCTTCACA | -0.13 |
| CTATCGTC | -0.0492 |
| CTGGCTTC | -0.114 |
| ACGAAAAC | 0.337 |
| AAGCGGCT | -0.0695 |
| AAAGTCGT | 0.261 |
| CAAAACTG | -0.155 |
| ATCCCAAC | -0.0633 |
| ACATGCCG | 0.137 |
| TATGGGGA | -0.136 |
| AAGGACGT | 0.0897 |
| ATCGGTAC | 0.249 |
| TAGCGCTA | 0.158 |
| ATCATAGA | -0.0447 |

| Sequence | PBM E-score |
| --- | --- |
| ATTAAACG | 0.449 |
| CGACTGCC | 0.0232 |
| ACAGCTCG | 0.166 |
| GACCTTCA | -0.0961 |
| ACAGGCGA | -0.0932 |
| CTAGTAAA | -0.032 |
| AAGACTAA | -0.221 |
| TGATGGAA | -0.188 |
| ATGTCACA | -0.135 |
| GTTTAAAA | 0.157 |
| AATGTGAG | -0.102 |
| AGCAGCCG | -0.0197 |
| AGAATGCG | 0.0703 |
| TCAGCCAA | -0.0987 |
| ATCTCGCA | 0.296 |
| AAGTGACC | 0.0136 |
| ATGTTGGC | 0.0586 |
| CGAAGGCA | -0.0298 |
| CCTTTGAC | -0.299 |
| CGCGTCAC | 0.0924 |
| CTCTTGGC | -0.271 |
| GCCATTGA | -0.0844 |
| ATTTCAGG | -0.0391 |
| GAAGCTGC | -0.139 |
| CCAACTTA | -0.115 |

| Sequence | PBM E-score |
| --- | --- |
| ACCCGGAA | -0.0363 |
| CTGAAGGC | -0.216 |
| TATTTAGA | 0.00352 |
| GTCTAGAA | -0.106 |
| CATCCCCG | -0.0388 |
| CAAAATTC | 0.214 |
| ATGATAGC | 0.0564 |
| AAAGCCCA | 0.0429 |
| GAAAGTCA | 0.0984 |
| AAGAATTA | -0.012 |
| CCATTGTA | 0.0165 |
| TACAAGCA | 0.0915 |
| TGCCGACA | 0.0514 |
| AATGCACT | -0.0341 |
| CCCGAAAC | 0.17 |
| ACGTATAT | 0.371 |
| ATCTGGTC | -0.187 |
| TGATGCAA | -0.0173 |
| GACAAACA | -0.0747 |
| GGGCTTCA | -0.195 |
| CAAACGCG | 0.21 |
| ATAGTCAG | -0.0196 |
| AATTAACG | 0.264 |
| GCGTTAGA | -0.108 |
| AACGCGAC | 0.233 |

| Sequence | PBM E-score |
| --- | --- |
| ATTACCTC | 0.0459 |
| ATGCAAAG | 0.0339 |
| ACAATAAT | -0.0625 |
| CGACCTCG | 0.183 |
| ACTGAAGC | -0.0293 |
| CACTCCTG | -0.226 |
| TCACGAGA | 0.0348 |
| GCACCAGA | 0.0194 |
| AGCCGCAA | -0.119 |
| CCGCTTTC | -0.0554 |
| CTCACGTC | -0.119 |
| CGGGACTA | -0.255 |
| GAAACGAA | 0.414 |
| AAAATATG | 0.0806 |
| GAAGTGAC | -0.00127 |
| CCACATGA | -0.246 |
| CCCAATTA | -0.136 |
| CGAAGGGC | 0.0256 |
| GCCAATTA | -0.0848 |
| ACGTTTAG | 0.33 |
| ATGCTTCG | 0.199 |
| CGTGTGTC | 0.0878 |
| ACAGGATC | -0.228 |
| CAGGACCG | -0.0291 |
| CGGGCTCC | -0.163 |

| Sequence | PBM E-score |
| --- | --- |
| AAATGATC | 0.0271 |
| CTACAGGA | -0.23 |
| CTTATCAC | 0.00894 |
| GGATGCGA | 0.166 |
| AGGAAACT | -0.189 |
| ATTCCATC | -0.0116 |
| ACCCTATA | -0.0965 |
| GGCCTTAC | 0.0102 |
| AAAGATAA | -0.0948 |
| CGGGCGGA | -0.115 |
| AATAACCA | -0.161 |
| AATACAAC | 0.0357 |
| GAGGAATC | -0.102 |
| CTTACCAC | -0.145 |
| ATGATTAC | -0.0653 |
| ACATTCAG | -0.184 |
| AAATAAAA | 0.0223 |
| AGCCAGTA | -0.359 |
| TAGATATA | 0.193 |
| GTTGCGAA | 0.195 |
| TCGGGCAA | -0.00674 |
| GTCGGTAA | 0.209 |
| AGACAGCG | -0.155 |
| ATATAAAC | 0.212 |
| CGCACGGC | -0.0936 |

| Sequence | PBM E-score |
| --- | --- |
| GGGTTTAA | -0.0497 |
| AGTCGGCC | -0.0769 |
| GACATTAA | -0.0106 |
| CATGAGGA | -0.166 |
| CCCCACGA | -0.163 |
| TCCACGAA | 0.119 |
| TACAGCTA | -0.105 |
| CGACTTGC | -0.0249 |
| GTGAGGAA | -0.00439 |
| ACAATGAT | -0.0379 |
| CGTGAAAC | -0.00739 |
| ACGCAAAT | -0.073 |
| AAACGAGT | 0.456 |
| ATGTTGAA | 0.0309 |
| AGTTTCAA | -0.249 |
| CTCAATGC | -0.0421 |
| AACGATGC | 0.348 |
| AGCTCCTC | -0.136 |
| CCGTGCCC | -0.158 |
| ATGGGAAA | -0.258 |
| ATAGCTCC | -0.169 |
| CAAAAGTC | -0.025 |
